Assay results from PubChem BioAssay AID1347073 (National Center for Advancing Translational Sciences (NCATS), 2019).
Among all 45,000 compounds or so, about 200 (0.44%) were called active. Another 7% or so got no clear call; they are omitted. The call rests on the fitted dose curve; in most records, active means well fitted activation curve with a large enough effect; inconclusive means small, poorly fitted or top-dose-only effect; inactive means no such curve, though single readings can be large or run the other way. The list shows a part of the results.

Assay: qHTS of TDP-43 Inhibitors: NCGC Sytravon Library Screen; further: 0% is about no effect; nearly all actives have a fitted effect of over 55% in size
Conditions: yeast TDP-43 toxicity rescue, BacTiter-Glo growth, 24 h; series mostly up to 46.1 µM; growth rescue (activation): at the top concentration
How it was run: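 TDP-43-expressing yeast, pregrown in raffinose, seeded at OD600 0.02 in galactose medium with compound for 24 hr at 30 deg C. Growth read by BacTiter-Glo luminescence, so rescue of toxicity appears as activation.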

**Q.** With `NS(=O)(=O)c1cccc(NC(=O)CSc2nc3ccccc3c(=O)n2Cc2ccco2)c1` as the compound, how does the “growth rescue (activation)” value read?
**A.** Its value is inactive: 16%.

**Q.** For `CCOC(=O)C1C(=O)NC(C)C1c1ccccc1` (centres undefined), which “growth rescue (activation)” value is on record?
**A.** Its value is inactive: 24.1%.

**Q.** For `COCCNC(=O)/C(C#N)=C/C(C)=C/c1ccccc1`, which “growth rescue (activation)” value is on record?
**A.** The value was inactive: 11.4%.

**Q.** Which “growth rescue (activation)” value does the source give for `Cc1cc(NC(=O)CSc2nnnn2-c2ccc(F)cc2)no1` here?
**A.** The value was inactive: -7.02%.

**Q.** With `COc1ccccc1NS(=O)(=O)c1cc(C(=O)N2CCCCCC2)ccc1C` as the compound, how does the “growth rescue (activation)” value read?
**A.** Its value is inactive: -14%.

**Q.** Which “growth rescue (activation)” value does the source give for `CCCCN(C=O)c1c(CC)nc2ccc(C(=O)N3CCN(c4ccccc4)CC3)cn12` here?
**A.** The value was inactive: 6.81%.

**Q.** With `Nc1nc(-c2cc3ccccc3o2)cs1` as the compound, how does the “growth rescue (activation)” value read?
**A.** The value was inactive: 15%.

**Q.** Which “growth rescue (activation)” value does the source give for `CCOC(=O)c1[nH]c2ccc(OC)cc2c1NC(=O)c1ccccc1C(=O)O` here?
**A.** Its value is inactive: 10.7%.

**Q.** With `Cc1ccc(NC(=O)CN2CCCC2)c2c1CC(C)(C)O2` as the compound, how does the “growth rescue (activation)” value read?
**A.** Its value is inactive: 15.9%.

**Q.** For `COc1cc(/C=C/CN2CCC(C(=O)NC(c3ccc(F)cc3)c3ccc4ccccc4n3)CC2)ccc1OC(C)=O` (centres undefined), which “growth rescue (activation)” value is on record?
**A.** Its value is inactive: -0.459%.

**Q.** Which “growth rescue (activation)” value does the source give for `COc1ccc(-c2ccc(CCC(=O)O)n2CC(=O)Nc2cccc(OC)c2)cc1` here?
**A.** The value was inactive: -6.62%.

**Q.** For `Cc1noc(C)c1-c1ccc(C(=O)NCC2CC2)c2occc12`, which “growth rescue (activation)” value is on record?
**A.** Its value is inactive: 14.2%.

**Q.** Which “growth rescue (activation)” value does the source give for `CC1(C)C(=O)OC(/C=C\c2cccc([N+](=O)[O-])c2)C(C)(C)C1=O` (centres undefined) here?
**A.** The value was inactive: 10.6%.

**Q.** For `COc1ccc(NC(=O)COC(=O)C2C3CC4OC(=O)C2C4C3)cc1` (centres undefined), which “growth rescue (activation)” value is on record?
**A.** Its value is inactive: 4.73%.

**Q.** With `Cn1c(CN2CCN(CCO)CC2)c(C#N)c2ccccc21` as the compound, how does the “growth rescue (activation)” value read?
**A.** Its value is inactive: 1.6%.

**Q.** With `NCC(c1ccc(Cl)cc1Cl)c1c[nH]c2ccccc12` (centres undefined) as the compound, how does the “growth rescue (activation)” value read?
**A.** The value was inactive: 1.49%.

**Q.** For `CCCOc1ccc(N2CC(C(=O)NC3=NCCS3)CC2=O)cc1` (centres undefined), which “growth rescue (activation)” value is on record?
**A.** The value was inactive: 8.62%.

**Q.** For `CN(Cc1ccccc1)C(=O)c1ccc2c(c1)S(=O)(=O)N=C1CCCCCN12`, which “growth rescue (activation)” value is on record?
**A.** The value was inactive: 8.74%.

**Q.** With `CC(C)C(NC(=O)c1c(F)cccc1F)C(=O)NC1CC(C)(C)NC(C)(C)C1` (centres undefined) as the compound, how does the “growth rescue (activation)” value read?
**A.** The value was inactive: 0.793%.

**Q.** With `COc1ccc(Cc2nc3ccc(C(=O)NCCn4cccn4)cc3o2)cc1` as the compound, how does the “growth rescue (activation)” value read?
**A.** The value was inactive: 13.6%.

**Q.** Which “growth rescue (activation)” value does the source give for `COc1ccc(NC(=S)Nc2cccc(Cl)c2Cl)cc1OC` here?
**A.** The value was inactive: 2.76%.

**Q.** Which “growth rescue (activation)” value does the source give for `CCN1CCc2c(sc(NC(=O)c3ccc(S(=O)(=O)N4CCOCC4)cc3)c2C(=O)OC)C1` here?
**A.** The value was inactive: -16%.

**Q.** With `COCCCC1CCN(C(=O)C2CCC(=O)N(CC3CCCCC3)C2)CC1` (centres undefined) as the compound, how does the “growth rescue (activation)” value read?
**A.** Its value is inactive: 9.87%.

**Q.** For `Nc1nc(NCCOCCO)nc(NCc2ccccc2)c1[N+](=O)[O-]`, which “growth rescue (activation)” value is on record?
**A.** The value was inactive: 0.247%.

**Q.** Which “growth rescue (activation)” value does the source give for `O=C(Nc1ccc(Cl)cc1)N1CCC(c2ccccc2)C1` (centres undefined) here?
**A.** Its value is inactive: 19.4%.

**Q.** For `O=C(Nc1ccc(Br)cc1)c1cccc(N2C(=O)C3C4C=CC(C4)C3C2=O)c1` (centres undefined), which “growth rescue (activation)” value is on record?
**A.** The value was inactive: 24.8%.

**Q.** For `Cc1cccc(C)c1NC(=O)C1CCN(C(=O)c2cccs2)CC1`, which “growth rescue (activation)” value is on record?
**A.** Its value is inactive: 14.6%.

**Q.** For `CCc1ccc(OCC(=O)OCC(=O)NC2CCCC(C)C2C)cc1` (centres undefined), which “growth rescue (activation)” value is on record?
**A.** Its value is inactive: -13.1%.

**Q.** For `Cc1cc(N2C(=O)C(O)=C(C(=O)c3ccc(C)o3)C2c2ccc(OCc3ccccc3)cc2)no1` (centres undefined), which “growth rescue (activation)” value is on record?
**A.** The value was inactive: -12.8%.

**Q.** With `CC(C)NC(=O)c1ccc(COc2ccc(C(C)(C)C)cc2)o1` as the compound, how does the “growth rescue (activation)” value read?
**A.** The value was inactive: -10.9%.

**Q.** For `CCOc1ccccc1NC(=O)c1c(NCc2sccc2C)sc2c1CCC(C)C2` (centres undefined), which “growth rescue (activation)” value is on record?
**A.** Its value is inactive: 11.5%.

**Q.** For `O=C(CN1CCN(S(=O)(=O)N2CCCCC2)CC1)Nc1cc(Cl)ccc1Cl`, which “growth rescue (activation)” value is on record?
**A.** Its value is inactive: 10.4%.

**Q.** Which “growth rescue (activation)” value does the source give for `O=C1c2cccc3cccc(c23)C(=O)N1/N=C/c1ccc(O)cc1O` here?
**A.** The value was inactive: 9.36%.

**Q.** Which “growth rescue (activation)” value does the source give for `Cc1cccc(C(=O)Nc2ccc(C(=O)N/N=C/c3cccc(C)n3)cc2)c1` here?
**A.** Its value is inactive: 9.82%.

**Q.** For `Cc1cc(Br)cc2c1NC(=O)C2(O)CC(=O)c1ccco1` (centres undefined), which “growth rescue (activation)” value is on record?
**A.** The value was inactive: -6.48%.

**Q.** With `CC(=O)Nc1ccc(-n2c(C)ccc2-c2ccccc2)cc1` as the compound, how does the “growth rescue (activation)” value read?
**A.** The value was inactive: 5.14%.

**Q.** Which “growth rescue (activation)” value does the source give for `Cc1onc(-c2ccccc2)c1C(=O)Nc1ccc(S(=O)(=O)N2CCOCC2)cc1` here?
**A.** The value was inactive: -21.4%.

**Q.** With `CCN(C(=O)COc1cccnc1[N+](=O)[O-])C1CCS(=O)(=O)C1` (centres undefined) as the compound, how does the “growth rescue (activation)” value read?
**A.** Its value is inactive: 8.14%.

**Q.** With `COCCNC(=O)c1cc(-c2ccncc2)nc2ccc(S(=O)(=O)N3CCOCC3)cc12` as the compound, how does the “growth rescue (activation)” value read?
**A.** The value was inactive: -3.41%.

**Q.** With `CCCCC(=O)Nc1ccccc1CC` as the compound, how does the “growth rescue (activation)” value read?
**A.** Its value is inactive: 1.89%.

**Q.** With `O=c1c2ccccc2nc(COc2ccccc2)n1/N=C/c1ccco1` as the compound, how does the “growth rescue (activation)” value read?
**A.** The value was inactive: 12.1%.

**Q.** With `COc1ccc(/C(N)=N/OC(=O)Cc2ccccc2)cc1` as the compound, how does the “growth rescue (activation)” value read?
**A.** Its value is inactive: 29.3%.

**Q.** For `O=C(N/C(=C\c1ccc(Cl)cc1)C(=O)N1CCOCC1)c1ccco1`, which “growth rescue (activation)” value is on record?
**A.** Its value is inactive: -27.7%.

**Q.** For `COc1ccc(/C=C/C(=O)Nc2sc(Cc3ccccc3)c(C)c2C(N)=O)cc1`, which “growth rescue (activation)” value is on record?
**A.** Its value is inactive: -9.88%.

**Q.** With `O=C(CN(C(=O)CNC(=O)c1cccs1)c1ccc(F)cc1)NC1CCCC1` as the compound, how does the “growth rescue (activation)” value read?
**A.** Its value is inactive: 3.26%.

**Q.** Which “growth rescue (activation)” value does the source give for `O=C(COC(=O)Cc1ccc(S(=O)(=O)N2CCOCC2)s1)Nc1ccc(OC(F)F)cc1` here?
**A.** Its value is inactive: 8.98%.

**Q.** For `O=C(COC(=O)[C@@H]1CC(O)CN1S(=O)(=O)c1ccccc1[N+](=O)[O-])c1ccccc1` (some centres undefined), which “growth rescue (activation)” value is on record?
**A.** The value was inactive: -5.92%.

**Q.** For `COc1cc(OC)cc(C(=O)N2CCC(N3CCN(c4ccccc4OC)CC3)CC2)c1`, which “growth rescue (activation)” value is on record?
**A.** The value was inactive: -33.6%.

**Q.** For `CCOc1ccc(N(CC(=O)NC2CCCCC2)S(=O)(=O)c2ccc(C)cc2)cc1`, which “growth rescue (activation)” value is on record?
**A.** The value was inactive: 5.29%.

**Q.** For `O=C(NC(=S)N1CCN(c2ccc([N+](=O)[O-])cc2)CC1)c1ccccc1`, which “growth rescue (activation)” value is on record?
**A.** The value was inactive: 0.468%.

**Q.** Which “growth rescue (activation)” value does the source give for `O=C(CCl)Nc1ccc2c(c1)OCO2` here?
**A.** The value was inactive: 8.18%.

**Q.** With `COc1cccc(Cn2c3ccc(NC(=O)CCc4ccc(F)cc4)cc3c(=O)n2C)c1` as the compound, how does the “growth rescue (activation)” value read?
**A.** The value was inactive: 0.331%.

**Q.** Which “growth rescue (activation)” value does the source give for `COc1cc(NC(=O)CN2CCCCC2C)c(C)cc1[N+](=O)[O-]` (centres undefined) here?
**A.** Its value is inactive: -18.7%.

**Q.** With `CC(C)(C)c1ccc(OCC(=O)NNC(=O)CCc2ccccc2)cc1` as the compound, how does the “growth rescue (activation)” value read?
**A.** The value was inactive: 26.9%.
